# Results from PubChem BioAssay AID504332 (National Center for Advancing Translational Sciences (NCATS), 2011).
# Hit rate of the full screen: of about 350,000 compounds, about 31,000 (8.9%) were called active. The inconclusive results got no clear call from the source; some entries with a clear call stand among them for comparison. Calls come from the whole dose curve; as a rule, active = well fitted inhibition curve with a large enough effect; inconclusive = small, poorly fitted or top-dose-only effect; inactive = no such curve, though single readings can be large or run the other way. Potencies beside an inconclusive call are fits to weak or partial responses and may not hold up.
# Molecular target: Histone-lysine N-methyltransferase EHMT2 (Homo sapiens) (UniProt Q96KQ7)
# Assay: qHTS Assay for Inhibitors of Histone Lysine Methyltransferase G9a; note: nearly all actives have a fitted effect of over 75% in size
# Settings: G9a H3K9 monomethylation, AlphaScreen, 2 h; activity, negative = inhibition: at 59 µM (top of the series) unless noted
# How it was run: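 G9a (20 nM) preincubated 15 min RT with compounds, then 500 nM biotinylated H3K9 peptide and 20 uM SAM added; 2 h RT reaction. Monomethyl-H3K9 product detected by AlphaScreen with anti-H3K9me1 antibody, streptavidin donor and anti-rabbit IgG acceptor beads.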
# % is set by controls: 0 for no effect and ±100 for the full control effect; potency is the fitted concentration of half-maximal effect; tags give direction and shape of the fitted curve.
# Sequence of UniProt Q96KQ7 (Q96KQ7 whole entry, looked up): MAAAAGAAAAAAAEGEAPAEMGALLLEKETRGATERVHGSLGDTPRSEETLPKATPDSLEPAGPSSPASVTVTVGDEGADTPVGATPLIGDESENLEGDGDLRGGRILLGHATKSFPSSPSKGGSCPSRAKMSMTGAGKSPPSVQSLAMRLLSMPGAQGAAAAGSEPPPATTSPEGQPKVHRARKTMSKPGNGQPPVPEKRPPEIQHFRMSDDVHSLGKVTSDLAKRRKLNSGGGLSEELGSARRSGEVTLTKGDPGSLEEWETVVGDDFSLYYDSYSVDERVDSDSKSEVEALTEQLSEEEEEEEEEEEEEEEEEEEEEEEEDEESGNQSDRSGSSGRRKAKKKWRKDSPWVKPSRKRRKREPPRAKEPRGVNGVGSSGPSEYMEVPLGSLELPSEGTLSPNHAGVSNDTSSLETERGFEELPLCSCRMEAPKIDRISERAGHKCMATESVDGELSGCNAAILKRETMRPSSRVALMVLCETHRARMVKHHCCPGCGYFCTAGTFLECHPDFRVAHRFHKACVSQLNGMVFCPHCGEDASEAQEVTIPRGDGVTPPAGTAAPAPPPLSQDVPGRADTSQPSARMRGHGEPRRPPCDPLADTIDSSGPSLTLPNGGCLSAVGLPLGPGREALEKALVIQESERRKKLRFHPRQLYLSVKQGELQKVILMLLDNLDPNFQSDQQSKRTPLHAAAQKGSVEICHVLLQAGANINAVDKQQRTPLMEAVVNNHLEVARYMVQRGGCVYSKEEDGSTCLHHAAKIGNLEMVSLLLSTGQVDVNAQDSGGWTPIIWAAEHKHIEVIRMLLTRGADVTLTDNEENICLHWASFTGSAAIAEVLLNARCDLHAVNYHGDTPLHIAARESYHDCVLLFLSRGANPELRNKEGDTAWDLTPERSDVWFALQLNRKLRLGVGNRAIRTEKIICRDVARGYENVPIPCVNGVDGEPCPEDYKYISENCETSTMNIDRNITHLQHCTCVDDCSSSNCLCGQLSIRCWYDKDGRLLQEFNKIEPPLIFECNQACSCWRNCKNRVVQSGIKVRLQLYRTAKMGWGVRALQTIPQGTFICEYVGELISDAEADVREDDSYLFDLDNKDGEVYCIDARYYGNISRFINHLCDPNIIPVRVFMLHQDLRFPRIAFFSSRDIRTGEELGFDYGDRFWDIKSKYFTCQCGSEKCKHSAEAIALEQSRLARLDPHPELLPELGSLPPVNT
Compound,Potency,"activity, negative = inhibition"
O=C1C2CC=CCC2C(=O)N1Nc1ccccc1 (configuration not stated),"inconclusive: 89.1 µM [inhibitor, single point]",
O=C(CN=C1NC(=O)C(c2ccccc2)(c2ccccc2)N1)NCc1ccc(F)cc1,"inconclusive: 0.282 µM [inhibitor, partial curve, poor fit]",
COc1ccc(-c2[nH]c3ccccc3c2SCCN)cc1,inactive,
CCc1ccccc1NC1=NCC(=O)N1Cc1ccccc1,active: 44.7 µM,
O=C(O)C1C2C=CC(O2)C1C(=O)NCCCn1ccnc1 (configuration not stated),active: 50.1 µM,
O=C(NCC1COc2ccccc2O1)C1C2C=CC3(CN(Cc4ccccc4Cl)C(=O)C13)O2 (configuration not stated),"inconclusive: 3.55 µM [inhibitor, single point]",
CCOc1ccc(-c2ccc(/C=C3/C(=N)N4C(C)=CSC4=NC3=O)o2)c([N+](=O)[O-])c1,"inconclusive: 39.8 µM [inhibitor, partial curve, poor fit]",
COc1ccc(CCNC(=O)c2nc(-c3ccc(Cl)cc3)n3c2CCCCC3)c(OC)c1,active: 12.6 µM,
c1ccc(Cn2c(NCc3ccccn3)nc3ccccc32)cc1,"inconclusive: 89.1 µM [inhibitor, single point]",
O=C(COc1cc2oc(=O)c3c(c2cc1Cl)CCC3)NCc1ccncc1,inactive,
Cc1cc(C)nc(SCC(=O)Nc2ccc(S(=O)(=O)Nc3nccs3)cc2)n1,"inconclusive: 15.8 µM [inhibitor, partial curve]",
O=C1C=C(c2ccnc3cc(Cl)ccc23)C[C@@H](c2ccc3c(c2)OCO3)C1,,inactive: -18.7% [at 0.501 µM]
COc1cccc(CN2CCNC(=O)C2CC(=O)NCCN2CCCCC2=O)c1 (configuration not stated),"inconclusive: 50.1 µM [inhibitor, single point]",
CN1CCN(c2ncc3nc(-c4ccccc4)c(=O)n(CCc4ccccc4)c3n2)CC1,,inactive: 29.9% [at 0.501 µM]
Cc1cccc(C)c1Nc1c(-c2ccccn2)nc2c(C)cccn12,inactive,
COc1ccc(NC(=O)CSc2nccn2Cc2ccccc2)c(OC)c1,active: 44.7 µM,
CCCNc1c(NS(=O)(=O)c2ccc(Br)cc2)c(=O)oc2ccccc12,inactive,
c1cn(C23CC4CC(CC(C4)C2)C3)cn1,,inactive: 3.55% [at 12.7 µM]
C=CCNC(=S)Nc1ccc(C)c(S(=O)(=O)N2CCCCC2)c1,inactive,
CC(=O)Nc1ccc(S(=O)(=O)N(Cc2ccco2)Cc2cc3ccccc3[nH]c2=O)cc1,active: 35.5 µM,
Cc1cccc(Nc2nc(N)nc(N)c2S(=O)(=O)c2ccccc2)c1,inactive,
Cc1cc(C)n2c(SCc3ccc(Cl)cc3Cl)nnc2n1,"inconclusive: 100 µM [inhibitor, single point]",
O=C1C=C(Nc2ccccc2)c2ccccc2C1=O,active: 39.8 µM,
COc1cc(CCC(=O)N2CCN(c3ccccc3)CC2)cc(OC)c1OC,inactive,

Compound,Potency,"activity, negative = inhibition"
O=C(CSc1nc2ncc(Cl)cc2[nH]1)c1ccc2c(c1)OCO2,"inconclusive: 70.8 µM [inhibitor, partial curve, poor fit]",
COc1ccc(Nc2nc(N)nc(CN3CCN(c4ccc(F)cc4)CC3)n2)cc1,"inconclusive: 89.1 µM [inhibitor, partial curve, poor fit]",
COc1ccc(C(CC(=O)O)N2Cc3ccccc3C2=O)cc1OC (configuration not stated),inactive,
Cc1oc(-c2cccc(Cl)c2)nc1CS(=O)(=O)CC(=O)NC1CC1,active: 50.1 µM,
CCSc1ncc(Cl)c(C(=O)Nc2nnc(CC)s2)n1,"inconclusive: 25.1 µM [inhibitor, partial curve]",
CCn1c(CNC(=O)Cc2ccc(OC)cc2)n[nH]c1=S,"inconclusive: 25.1 µM [inhibitor, single point]",
O=C(O)CCC(=O)Nc1ccc(F)cc1,inactive,
CCOc1ccc2oc(=O)cc(CN3CCN(C(=O)c4ccc(OC)c(OC)c4)CC3)c2c1,"inconclusive: 28.2 µM [inhibitor, single point]",
CC1CCN(C(=O)c2cc(-c3ccco3)on2)CC1,"inconclusive: 89.1 µM [inhibitor, single point]",
COC(=O)Cn1c(=NC(=O)CSCC(=O)Nc2cc(C)on2)sc2cc(C(=O)OC)ccc21,inactive,
COc1cc(C(CCN2CCCC(C)C2)c2c(OC)cc(OC)c3c2OC(=O)CC3c2ccc(N(C)C)cc2)cc(OC)c1OC (configuration not stated),"inconclusive: 10 µM [inhibitor, single point]",
O=C(O)CNC(=S)N(Cc1ccccc1F)C1CCCCC1,inactive,
Cc1ccnc(NC(=O)COC(=O)C2COc3ccccc3O2)n1 (configuration not stated),"inconclusive: 70.8 µM [inhibitor, partial curve, poor fit]",
CCOc1ccccc1N1CCN(C(=O)c2ccc(Cl)c(S(=O)(=O)N3CCCCC3)c2)CC1,"inconclusive: 70.8 µM [inhibitor, partial curve, poor fit]",
COc1ccccc1NC(=O)CN1C(=O)CC(C)S(=O)(=O)c2ccccc21 (configuration not stated),"inconclusive: 89.1 µM [inhibitor, single point]",
O=[N+]([O-])c1ccc2c(c1)S(=O)(=O)C=C2,"inconclusive: 26.7 µM [inhibitor, single point]",
Brc1ccc2[nH]c3c(c2c1)CCC3,"inconclusive: 14.1 µM [inhibitor, partial curve, poor fit]",
O=C(N1CCOCC1)N1CCN(C(=O)N(c2ccccc2)c2ccccc2)CC1,"inconclusive: 89.1 µM [inhibitor, single point]",
COc1ccc(C(C)(C)C)cc1NC(=O)C1C2C=CC(C2)C1C(=O)O (configuration not stated),active: 50.1 µM,
CCC(C(=O)NCCc1ccccc1)n1nc(C)c2sc3ccccc3c2c1=O (configuration not stated),inactive,
Oc1ccc2c(c1)c1c3n2CCNC3CCC1 (configuration not stated),"inconclusive: 50.1 µM [inhibitor, single point]",
COCCn1c(Cc2cccn2C)nnc1SCC(=O)NCc1ccc2c(c1)OCO2,"inconclusive: 50.1 µM [inhibitor, partial curve]",
CC(=O)Nc1cccc(NC(=S)Nc2ccc(F)cc2F)c1,"inconclusive: 79.4 µM [inhibitor, single point]",
